Holding throughout (experiment): glycan array binding signal (z-score within array); higher = stronger binding
What all share (details): glycan notation: IUPAC condensed, linker removed

Assay [1] has as its target Gal(b1-4)GlcNAc(b1-2)[Gal(b1-4)GlcNAc(b1-6)]Man(a1-6)[GlcNAc(b1-4)][Gal(b1-4)GlcNAc(b1-2)Man(a1-3)]Man(b1-4)GlcNAc(b1-4)GlcNAc. Put shortly: (§1)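 The binding signal is a Z-score computed within each array. Data were drawn from 3228 arrays in the Consortium for Functional Glycomics database, restricted to those with a known protein sequence. Scores were averaged over arrays of the same protein sequence at different concentrations or buffers, and over linkers, and negative values can be taken as non-binding.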

The target in assay [2] is Gal(b1-4)GlcNAc(b1-2)[Gal(b1-4)GlcNAc(b1-6)]Man(a1-6)[GlcNAc(b1-4)][Gal(b1-4)GlcNAc(b1-2)[Gal(b1-4)GlcNAc(b1-4)]Man(a1-3)]Man(b1-4)GlcNAc(b1-4)[Fuc(a1-6)]GlcNAc. Put shortly: as §1
Assay [3] deals with Gal(b1-4)GlcNAc(b1-3)Gal(b1-3)GalNAc. The essentials: as §1
Assay [4] deals with Gal(b1-4)GlcNAc(b1-3)Gal(b1-3)GlcNAc. Put shortly: as §1
The target in assay [5] is Gal(b1-4)GlcNAc(b1-3)Gal(b1-4)Glc. The essentials:
as §1

Assay [6] has as its target Gal(b1-4)GlcNAc(b1-3)Gal(b1-4)GlcNAc. Put shortly:
as §1

The target in assay [7] is Gal(b1-4)GlcNAc(b1-3)Gal(b1-4)GlcNAc(b1-2)Man(a1-3)[Gal(b1-4)GlcNAc(b1-3)Gal(b1-4)GlcNAc(b1-2)Man(a1-6)]Man(b1-4)GlcNAc(b1-4)GlcNAc. The essentials:
as §1

The target of assay [8] is Gal(b1-4)GlcNAc(b1-3)Gal(b1-4)GlcNAc(b1-2)Man(a1-3)[Gal(b1-4)GlcNAc(b1-3)Gal(b1-4)GlcNAc(b1-2)Man(a1-6)]Man(b1-4)GlcNAc(b1-4)[Fuc(a1-6)]GlcNAc. Put shortly: as §1
Assay [9] addresses Gal(b1-4)GlcNAc(b1-3)Gal(b1-4)GlcNAc(b1-2)[Gal(b1-4)GlcNAc(b1-3)Gal(b1-4)GlcNAc(b1-6)]Man(a1-6)[Gal(b1-4)GlcNAc(b1-3)Gal(b1-4)GlcNAc(b1-2)Man(a1-3)]Man(b1-4)GlcNAc(b1-4)GlcNAc. Put shortly: as §1
The target in assay [10] is Gal(b1-4)GlcNAc(b1-3)Gal(b1-4)GlcNAc(b1-2)[Gal(b1-4)GlcNAc(b1-3)Gal(b1-4)GlcNAc(b1-6)]Man(a1-6)[Gal(b1-4)GlcNAc(b1-3)Gal(b1-4)GlcNAc(b1-2)Man(a1-3)]Man(b1-4)GlcNAc(b1-4)[Fuc(a1-6)]GlcNAc. Put shortly:
as §1

Assay [11] addresses Gal(b1-4)GlcNAc(b1-3)Gal(b1-4)GlcNAc(b1-3)Gal(b1-4)GlcNAc. The essentials: as §1
Assay [12] concerns the target Gal(b1-4)GlcNAc(b1-3)Gal(b1-4)GlcNAc(b1-3)Gal(b1-4)GlcNAc(b1-2)Man(a1-3)[Gal(b1-4)GlcNAc(b1-3)Gal(b1-4)GlcNAc(b1-3)Gal(b1-4)GlcNAc(b1-2)Man(a1-6)]Man(b1-4)GlcNAc(b1-4)GlcNAc. Put shortly: as §1
Assay [13] addresses Gal(b1-4)GlcNAc(b1-3)Gal(b1-4)GlcNAc(b1-3)Gal(b1-4)GlcNAc(b1-2)Man(a1-3)[Gal(b1-4)GlcNAc(b1-3)Gal(b1-4)GlcNAc(b1-3)Gal(b1-4)GlcNAc(b1-2)Man(a1-6)]Man(b1-4)GlcNAc(b1-4)[Fuc(a1-6)]GlcNAc. Put shortly: as §1
For assay [14], the target named is Gal(b1-4)GlcNAc(b1-3)Gal(b1-4)GlcNAc(b1-3)Gal(b1-4)GlcNAc(b1-2)[Gal(b1-4)GlcNAc(b1-3)Gal(b1-4)GlcNAc(b1-3)Gal(b1-4)GlcNAc(b1-6)]Man(a1-6)[Gal(b1-4)GlcNAc(b1-3)Gal(b1-4)GlcNAc(b1-3)Gal(b1-4)GlcNAc(b1-2)Man(a1-3)]Man(b1-4)GlcNAc(b1-4)[Fuc(a1-6)]GlcNAc. The essentials:
as §1

Assay [15] addresses Gal(b1-4)GlcNAc(b1-3)Gal(b1-4)GlcNAc(b1-3)Gal(b1-4)GlcNAc(b1-3)Gal(b1-4)GlcNAc(b1-2)Man(a1-3)[Gal(b1-4)GlcNAc(b1-3)Gal(b1-4)GlcNAc(b1-3)Gal(b1-4)GlcNAc(b1-3)Gal(b1-4)GlcNAc(b1-2)Man(a1-6)]Man(b1-4)GlcNAc(b1-4)GlcNAc. Put shortly: as §1
Assay [16] deals with Gal(b1-4)GlcNAc(b1-3)Gal(b1-4)GlcNAc(b1-3)Gal(b1-4)GlcNAc(b1-3)Gal(b1-4)GlcNAc(b1-2)Man(a1-3)[Gal(b1-4)GlcNAc(b1-3)Gal(b1-4)GlcNAc(b1-3)Gal(b1-4)GlcNAc(b1-3)Gal(b1-4)GlcNAc(b1-2)Man(a1-6)]Man(b1-4)GlcNAc(b1-4)[Fuc(a1-6)]GlcNAc. The essentials: as §1
Assay [17] addresses Gal(b1-4)GlcNAc(b1-3)Gal(b1-4)GlcNAc(b1-3)Gal(b1-4)GlcNAc(b1-3)Gal(b1-4)GlcNAc(b1-2)[Gal(b1-4)GlcNAc(b1-3)Gal(b1-4)GlcNAc(b1-3)Gal(b1-4)GlcNAc(b1-3)Gal(b1-4)GlcNAc(b1-6)]Man(a1-6)[Gal(b1-4)GlcNAc(b1-3)Gal(b1-4)GlcNAc(b1-3)Gal(b1-4)GlcNAc(b1-3)Gal(b1-4)GlcNAc(b1-2)Man(a1-3)]Man(b1-4)GlcNAc(b1-4)[Fuc(a1-6)]GlcNAc. The essentials: as §1
Assay [18] addresses Gal(b1-4)GlcNAc(b1-3)Gal(b1-4)GlcNAc(b1-3)Gal(b1-4)GlcNAc(b1-3)Gal(b1-4)GlcNAc(b1-3)Gal(b1-4)GlcNAc(b1-2)Man(a1-3)[Gal(b1-4)GlcNAc(b1-3)Gal(b1-4)GlcNAc(b1-3)Gal(b1-4)GlcNAc(b1-3)Gal(b1-4)GlcNAc(b1-3)Gal(b1-4)GlcNAc(b1-2)Man(a1-6)]Man(b1-4)GlcNAc(b1-4)GlcNAc. Put shortly:
as §1

The target in assay [19] is Gal(b1-4)GlcNAc(b1-3)Gal(b1-4)GlcNAc(b1-3)Gal(b1-4)GlcNAc(b1-3)Gal(b1-4)GlcNAc(b1-3)Gal(b1-4)GlcNAc(b1-2)Man(a1-3)[Gal(b1-4)GlcNAc(b1-3)Gal(b1-4)GlcNAc(b1-3)Gal(b1-4)GlcNAc(b1-3)Gal(b1-4)GlcNAc(b1-3)Gal(b1-4)GlcNAc(b1-2)Man(a1-6)]Man(b1-4)GlcNAc(b1-4)[Fuc(a1-6)]GlcNAc. Put shortly:
as §1

For assay [20], the target named is Gal(b1-4)GlcNAc(b1-3)Gal(b1-4)GlcNAc(b1-3)Gal(b1-4)GlcNAc(b1-3)Gal(b1-4)GlcNAc(b1-3)Gal(b1-4)GlcNAc(b1-2)[Gal(b1-4)GlcNAc(b1-3)Gal(b1-4)GlcNAc(b1-3)Gal(b1-4)GlcNAc(b1-3)Gal(b1-4)GlcNAc(b1-3)Gal(b1-4)GlcNAc(b1-6)]Man(a1-6)[Gal(b1-4)GlcNAc(b1-3)Gal(b1-4)GlcNAc(b1-3)Gal(b1-4)GlcNAc(b1-3)Gal(b1-4)GlcNAc(b1-3)Gal(b1-4)GlcNAc(b1-2)Man(a1-3)]Man(b1-4)GlcNAc(b1-4)[Fuc(a1-6)]GlcNAc. The essentials:
as §1

Assay [21] concerns the target Gal(b1-4)GlcNAc(b1-3)Gal(b1-4)GlcNAc(b1-3)Gal(b1-4)GlcNAc(b1-3)Gal(b1-4)GlcNAc(b1-3)Gal(b1-4)GlcNAc(b1-3)Gal(b1-4)GlcNAc(b1-2)Man(a1-3)[Gal(b1-4)GlcNAc(b1-3)Gal(b1-4)GlcNAc(b1-3)Gal(b1-4)GlcNAc(b1-3)Gal(b1-4)GlcNAc(b1-3)Gal(b1-4)GlcNAc(b1-3)Gal(b1-4)GlcNAc(b1-2)Man(a1-6)]Man(b1-4)GlcNAc(b1-4)GlcNAc. Put shortly:
as §1

For assay [22], the target named is Gal(b1-4)GlcNAc(b1-3)Gal(b1-4)GlcNAc(b1-3)GalNAc. Put shortly: as §1
In assay [23] the target is Gal(b1-4)GlcNAc(b1-3)Gal(b1-4)GlcNAc(b1-3)[Gal(b1-4)GlcNAc(b1-3)Gal(b1-4)GlcNAc(b1-6)]GalNAc. The essentials:
as §1

This is one part of the list.

B1: EULS2 M2 (Oryza sativa) (protein)
chain: MVYCRANPNYAMTARNGAVVLAPANPKDEYQHWIKDMRWSTSIKDEEGYPAFALVNKATGQAIKHSLGQSHPVRLVPYNPEVMDESVLWTESRDVGNGFRCIRMVNNIYLNFDAFHGDKYHGGVRDGTDIVLWKLCEGDSQRWKIQPYYILEQKLISEEDLNSAVDHHHHHH
As for B1, the “glycan array binding signal (z-score)” value in assay [1] is -0.212; in [2] it was -0.469; in [3] it was -0.435; in assay [4], -0.193; in [5], -0.445; in assay [6] it was 0.298. In addition, the “glycan array binding signal (z-score)” value in assay [7] is 0.295; in assay [8], -0.309; in [9], 1.3; in assay [10] it was 0.142; in [11], -0.22; in assay [12], -0.451. Further, the “glycan array binding signal (z-score)” value in assay [13] was -0.152; in assay [14], -0.005; in assay [15] it was 0.019; in assay [16] it was 0.099; in assay [17] it was 0.194; in assay [18] it was 2.79. Moreover, the “glycan array binding signal (z-score)” value was 0.066 in assay [19]; -0.103 in [20]; 1.06 in assay [21]; -0.414 in assay [22]; -0.129 in assay [23].
